# The list shows a part of the results.
# Test system: T1, C. trachomatis L2/434/Bu expressing GFP (CTL2-GFP)
# T1 construct: L2/434/Bu GFP intracellular growth in HeLa cells
# Design: species or system HeLa; C. trachomatis total inclusion area by high-content imaging, normalised to DMSO
# Details: total inclusion area; 28.5 h, 10 µM; inhibitor
# Summary of the method: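 Imaging read-out: GFP inclusions and Hoechst nuclei captured by high-content imaging after fixation. Inclusion area/number = chlamydial growth; nuclei count = host cell viability. MIC calculated per earlier method.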
row,Compound,% of control remaining
1,O=C(Nc1cccc(C(F)(F)F)c1)N[C@H]1[C@H](O)[C@@H](N2CCCC2)[C@@H]2OC[C@H]1O2 [CBK288828],100.57
2,NC(CCc1nc2ccccc2[nH]1)c1nc2ccccc2[nH]1 (centres unmarked) [CBK269970],106.612
3,CCc1ccccc1NC(=O)CN1CCCCC1C(=O)O (centres unmarked) [CBK287179],98.7457
4,OC1(c2cccnc2)CCCC2CN(Cc3c(F)cccc3F)CC21 (centres unmarked) [CBK284512],70.4323
5,O=C(Nc1nccs1)c1cc(=O)c2ccccc2o1 [CBK287570],94.6354
6,Cc1ccc(-c2noc(C(C)NC(=O)C3(Cn4ccnc4)CC3)n2)cc1 (centres unmarked) [CBK307661],76.7991
7,O=S(=O)(c1ccc2ccccc2c1)N1CCN(C2CCCCCCC2)CC1 [CBK264186G],101.412
8,COc1ccccc1CC(=O)N1C2CCC1CC(O)(c1ccco1)C2 (centres unmarked) [CBK284106],107.098
9,Cc1ccc(Cl)c(OC(C)C(=O)N2CCN(c3ccccn3)CC2)c1 (centres unmarked) [CBK304650],37.9499
10,CC(=O)c1ccc(-c2nc(-c3cccc(OC(F)(F)F)c3)cnc2N)cc1 [CBK064105],74.5907
11,O=C(O)COCC(=O)N1C[C@@H]2OCC(=O)N(Cc3ccccc3)[C@@H]2C1 [CBK289652],113.566
12,c1ccc2nc3c(nc2c1)sc1nc2ccccc2n13 [CBK268872],63.0476
13,N#CCCOc1nc2ccccc2nc1N1CCCC1 [CBK115763],81.9039
14,C[C@@H](Cn1nc2c(cc1=O)CCCC2)NC(=O)c1ccco1 [CBK284559],119.618
15,O=C(Nc1ccc2nc(CN3CCOCC3)[nH]c2c1)C1CCCCC1 [CBK305728],66.8903
16,C/C(=N\N)c1ccc2[nH]c3c(c2c1)CCC/C3=N\N [CBK261812],69.8539
17,COc1cc(OCc2ccccc2)ccc1CN1CCN(Cc2ccc3c(c2)OCO3)CC1 [CBK074768],73.7514
18,O=C(O)/C=C/c1cccc(-c2cnc3[nH]c(=O)n(C4CC4)c3n2)c1 [CBK065091],143.773
19,COc1ccc(C(=O)Nc2cnn(CCCC(=O)O)c2)cc1 [CBK270052],85.7583
20,FC(F)(F)c1cccc(-c2cn(-c3ccsc3)nn2)c1 [CBK112937],79.4113
21,O=C(NC[C@H]1C[C@@H]2CC[N@]1C[C@@H]2CN1CCN(c2ccccn2)CC1)Nc1ccccc1 [CBK289114],78.9777
22,O=C(c1ccc2[nH]nnc2c1)N1CCN(S(=O)(=O)Cc2ccccc2)CC1 [CBK295346],120.599
23,Cc1cc(SCC(C)C)n2ncnc2n1 [CBK261808],99.3763
24,Cc1onc(-c2ccccc2)c1C(=O)NC(=S)Nc1sc2c(c1C#N)CCC2 [CBK267492],106.575
25,CC(C)(CNC(=O)Cn1cc(C(=O)NC2CCCCC2)ccc1=O)c1cccc(F)c1 [CBK286110],127.34
26,c1ccn(CCOc2nccnc2-c2ccsc2)c1 [CBK106772],105.403
27,COc1ccc(CCC(=O)c2cnc3sc4c(n23)CCCCC4)cc1 [CBK016849],67.9106

row,Compound,% of control remaining
1,c1ccc(C(NCc2cncs2)C2CCCC2)cc1 (centres unmarked) [CBK304812],90.5739
2,COc1ccc(-c2ccc3ccc(=O)[nH]c3n2)cc1C [CBK073712],119.655
3,Cc1nc(C)c(C(=O)NCC2CCCOC2)s1 (centres unmarked) [CBK282194],77.0397
4,CS(=O)(=O)N1CCc2cc(-c3csc(C4CC4)n3)ccc21 [CBK306347],77.3246
5,O=C(CSCc1c(F)cccc1Cl)NCc1ccncc1 [CBK268381],117.835
6,CCCCc1ccc(NC(=N)Nc2nc(C)cc(C)n2)cc1 [CBK262967],35.0563
7,O=C1OCCN1S(=O)(=O)c1ccc(CN2CCN(Cc3ccc(S(=O)(=O)N4CCOC4=O)cc3)CC2)cc1 [CBK024729],103.5
8,Cc1cn(CC(=O)N2CCC3(CCCNC3)C2)c(=O)[nH]c1=O (centres unmarked) [CBK153231C],86.0085
9,O=C(COc1ccc(F)cc1)Nc1cccc2[nH]ccc12 [CBK159653],100.433
10,O=C(COc1ccc(F)cc1)N1CCN(c2ncccn2)CC1 [CBK144499],100.644
11,O=C(COc1cccc2ccccc12)NNC(=O)C1CCCO1 (centres unmarked) [CBK263007],95.4757
12,O=C(CCN1CCCCC1)NC1Cc2ccccc2C1 [CBK200364],75.4884
13,CC(=O)c1c(-c2cccc3ccccc23)nc2n(CCN3CCCCC3)c3ccccc3n12 [CBK278243C],66.3172
14,COc1cccc(C(=O)Nc2ccc(-c3noc(-c4ccncc4)n3)cc2)c1 [CBK269892],75.1365
15,Cc1c(S(=O)(=O)Nc2ccc(C(O)(C(F)(F)F)C(F)(F)F)cc2)cnn1-c1ccccc1 [CBK062099],108.696
16,Nc1cccc(-c2ccc(OC3CCNCC3)cc2)c1 [CBK126959T],29.0399
17,CC(=O)Nc1cc(C(=O)Nc2ccc(Br)cc2)ccc1C [CBK267788],102.654
18,Cc1ccc(S(=O)(=O)Nc2sccc2C(=O)Nc2ccc(F)cc2)cc1 [CBK042302],52.795
19,CCC(CO)Nc1nccnc1-c1cccc(F)c1 (centres unmarked) [CBK036775],79.6547
20,O=c1nc(CN2CCN(c3ncccn3)CC2)[nH]c2ccccc12 [CBK269918],89.3834
21,Cc1nn(C)c(Cl)c1S(=O)(=O)Nc1ccc2cn[nH]c2c1 [CBK067141],91.6947
22,COc1cc(/C=N/NC(=O)CNC(=O)c2ccncc2)ccc1O [CBK262013],67.096
23,O=C1CC2CC3CC2C(Sc2ccccc2)C3O1 (centres unmarked) [CBK016225],57.9166
24,N#Cc1cccc(-n2cc(-c3ccc(C(F)(F)F)cc3)nn2)c1 [CBK112957],83.898
25,CCOc1ccc(S(=O)(=O)N2CCCN(Cc3cccc(C(F)(F)F)c3)CC2)c2cccnc12 [CBK062760],80.15
26,COc1ccnc(Cn2ncc(N3CCCC3)cc2=O)c1OC [CBK306672],59.5443
27,Cc1ccc(CN(C)C(C)C(=O)NCc2cccs2)cc1 (centres unmarked) [CBK295663],112.818

row,Compound,% of control remaining
1,CCc1nc2ccc(C(=O)NC3=NN(c4ccccc4)C(=O)C3)cn2c1N(C)C(=O)COc1ccccc1 [CBK145873],106.509
2,Cc1nnc2n1-c1ccc(Cl)cc1C(c1ccccc1)=NN2CCCC(=O)c1ccc(F)cc1 [CBK016076],103.891
3,Cc1nccc(C(=O)N2CCC3(C/C=C/C[C@H]4COCC[C@H]4NC(=O)CNC3=O)CC2)n1 [CBK292072],90.0714
4,CN(C)S(=O)(=O)N(CC(=O)Nc1cccnc1)c1ccccc1 [CBK267958],92.4256
5,O=C(c1ncoc1-c1ccc(F)cc1)N1CCN2CCCCC2C1 (centres unmarked) [CBK282400],95.109
6,CN(c1ccc(C(=O)Nc2ccc(S(=O)(=O)N3CCCC3)cc2)cc1)S(=O)(=O)c1ccccc1 [CBK266896],73.6585
7,O=C(O)CCC(=O)NCC1OCCc2ccccc21 (centres unmarked) [CBK265865],73.1932
8,CCOc1ccc(CC(=O)Nc2ncccc2OCCCC#N)cc1 [CBK304062],22.2856
9,COc1ccc(C(=O)OC(C)(C)C)c(-c2cncc(N3CCN(CCO)CC3)n2)c1 [CBK037239],156.307
10,Cc1ccc(C2(CN3CCN(Cc4ncc[nH]4)CC3)CC2)cc1 [CBK283306],61.5069
11,CCOC(=O)[C@H]1CC[C@]2(CC1)CNC(=O)c1cc(Cl)ccc1O2 [CBK284849],90.3225
12,CC(NC(=O)COc1ccc(Cl)cc1Cl)C(=O)O (centres unmarked) [CBK261425],106.671
13,CSc1nc(NC(=O)C2CCCO2)cc(N2CCNCC2)n1 (centres unmarked) [CBK026740T],104.03
14,CC(C)c1ccc(NC(=O)O[C@@H]2CO[C@H]3[C@@H]2OC[C@@H]3NC(=O)c2cncnc2)cc1 [CBK289480],60.7189
15,CCOC(=O)N1CCC(Nc2nc3ccccc3nc2OCc2cc(C)on2)CC1 [CBK171825],111.72
16,O=C1Nc2ccc([N+](=O)[O-])cc2C1(O)N1CCCCC1 (centres unmarked) [CBK262496],116.416
17,O=C(Nc1ccc(F)cc1)c1ccc(NS(=O)(=O)Cc2ccccc2[N+](=O)[O-])cc1 [CBK050405],69.5232
18,NC(=O)c1c(NC(=O)c2ccc(-c3ccccc3)cc2)sc2c1CCC2 [CBK265747],120.049
19,O=C(Oc1ccccc1O)c1cccc(Cl)c1 [CBK090130],25.8495
20,O=C(O)C1CCN(c2ncnc3sc4c(c23)CCC4)CC1 [CBK268326],79.0996
21,O=C(NC1CCCCC1)N1Cc2nc[nH]c2C[C@H]1c1nc(-c2ccc3c(c2)OCO3)no1 [CBK289000],77.8093
22,O=C(c1cc(F)cc(F)c1)N1CCn2c(nnc2C2CC2)C1 [CBK283772],90.8483
23,Sc1nnc(Cc2cccc3ccccc23)n1-c1ccccc1 [CBK265052],88.4685
24,CC1CCCN(C(=O)N(C)C)C1 (centres unmarked) [CBK023175],30.6012
25,COc1ccc(-c2nc(-c3ccc(C(=O)N4CCOCC4)cc3)cnc2N)cc1 [CBK116509],107.311
26,CCOC(=O)c1ccc(-c2ccc(C(=O)Nc3ccc(-c4nc5ccccc5o4)c(O)c3)o2)cc1 [CBK263428],123.821

# Source: paper PMC12040169 (PLOS Biology, 2025)
